# The supplement of paper PMC4166925
# ± gives the standard deviation of the averaged measurements. Over roughly 33,000 sequences, “E-score (dimensionless, -0.5 to 0.5)” has its median near -0.046; the highest 2% begin near 0.36. The list shows a part of the results.
# Tested on: T1, SpTbr T-box DNA-binding domain (GST fusion)
# T1 sequence: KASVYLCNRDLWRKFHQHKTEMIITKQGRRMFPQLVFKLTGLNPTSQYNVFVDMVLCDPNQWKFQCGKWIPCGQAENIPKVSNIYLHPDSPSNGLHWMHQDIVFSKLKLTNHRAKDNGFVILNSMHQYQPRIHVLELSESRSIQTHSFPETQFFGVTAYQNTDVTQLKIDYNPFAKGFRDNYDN
# Experiment: PBM E-score of 8-mer (E-score (dimensionless, -0.5 to 0.5)); Tbr is Tbrain of the sea star Patiria miniata (Pm) or the sea urchin Strongylocentrotus purpuratus (Sp); higher = stronger binding preference; most listed sequences are background and not binding sites
# Conditions: the construct has about 5 more residues each side
# Procedure, shortened: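 GST-fused Tbr T-box DNA-binding domains (the whole T-box plus about five flanking residues) were expressed in BL21 E. coli at 20 °C and purified by glutathione affinity chromatography. Universal Agilent oligonucleotide arrays were made double-stranded by primer extension, incubated with 200 nM protein in PBS (pH 7.5), then scanned and quantified. Every ungapped 8-mer was scored from probe intensities. The Universal PBM Analysis Suite gave each word an enrichment E-score, averaged over duplicate arrays.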
row,Sequence,PBM E-score of 8-mer
1,CGCTATCC,0.15 ± 0.0043
2,AGGTCTAC,-0.24 ± 0.034
3,TCTCCAAA,-0.125 ± 0.17
4,GCACTCGA,0.0852 ± 0.007
5,CGAATAGA,0.115 ± 0.036
6,CCTTGGCG,0.245 ± 0.06
7,ACTTATTA,0.0431 ± 0.084
8,ACCAGTTC,0.0411 ± 0.019
9,CATAAGCG,0.082 ± 0.058
10,GAGCTTAA,-0.251 ± 0.056
11,CTTCCACC,-0.138 ± 0.056
12,CCGGTACG,-0.1 ± 0.024
13,AGGAGTAA,-0.0244 ± 0.029
14,ATCAGGGA,-0.232 ± 0.029
15,AAGTTGGC,0.164 ± 0.024
16,ATGCTATG,-0.0836 ± 0.038
17,GCTGTTCC,-0.0355 ± 0.05
18,ATCTAGTA,-0.14 ± 0.028
19,GTCCGTAA,-0.212 ± 0.059
20,CCGGAGAA,-0.0246 ± 0.0038
21,CGTGTGAC,0.399 ± 0.012
22,GCCATCCA,-0.0481 ± 0.055

row,Sequence,PBM E-score of 8-mer
1,CTACTACC,-0.112 ± 0.033
2,TGCCTTAA,-0.0697 ± 0.059
3,ACACGTAA,0.198 ± 0.014
4,GGTTAAAA,-0.0212 ± 0.0034
5,GGGAGACC,-0.123 ± 0.14
6,GTGATGTA,0.101 ± 0.021
7,AACCCGCC,-0.0633 ± 0.025
8,CTCACGCC,0.397 ± 0.039
9,GTACAGAA,-0.162 ± 0.013
10,CACACTGA,0.235 ± 0.0071
11,ATATAGGG,-0.191 ± 0.11
12,GTCGCCCA,0.198 ± 0.0069
13,CTTGTCAC,0.39 ± 0.013
14,CGTGGGTA,-0.0186 ± 0.14
15,CTGAGTCC,-0.142 ± 0.055
16,AGATGTGG,0.0631 ± 0.036
17,AGCATGAC,-0.0727 ± 0.016
18,AATCGATC,-0.0423 ± 0.085
19,GCAAGTAC,0.0144 ± 0.0029
20,GAAAGGGC,-0.121 ± 0.0016
21,AAGACAAG,-0.16 ± 0.012
22,TTCTCCAA,-0.107 ± 0.059

row,Sequence,PBM E-score of 8-mer
1,GCAAGGCC,-0.162 ± 0.012
2,CGCTAACG,0.373 ± 0.0088
3,CCTAAACA,0.00347 ± 0.059
4,ATATCCAA,-0.0515 ± 0.011
5,CCGAGCGC,0.0157 ± 0.028
6,AATTGTTC,0.0645 ± 0.035
7,TAGTCTAA,-0.202 ± 0.03
8,GAGGTAGC,-0.102 ± 0.033
9,ACAAAACG,0.0152 ± 0.048
10,AATAGTGT,0.207 ± 0.018
11,CGGTCACA,0.302 ± 0.022
12,ACCGGTCC,-0.309 ± 0.027
13,AGCAGACC,-0.12 ± 0.02
14,AAGTCGTG,0.208 ± 0.025
15,GACTAACA,0.17 ± 0.0022
16,CCTCTGTA,0.0243 ± 0.041
17,GGAGGGGA,-0.0561 ± 0.07
18,GCCAACAA,0.195 ± 0.062
19,CCAGCAAG,-0.202 ± 0.012
20,CCTATGCC,-0.203 ± 0.043
21,CACGGCCA,0.115 ± 0.058
22,TGCGGTAA,0.0466 ± 0.037

row,Sequence,PBM E-score of 8-mer
1,CCGACGAG,0.0831 ± 0.058
2,CGGGGCAG,-0.0573 ± 0.064
3,CTTGAATC,-0.202 ± 0.067
4,CTGGAGGA,-0.0624 ± 0.0024
5,CAAGATCC,-0.0979 ± 0.055
6,CACCCAAG,0.198 ± 0.013
7,GAGAACTA,0.18 ± 0.0067
8,TCATAGCA,0.0536 ± 0.006
9,TACCCCCA,-0.355 ± 0.015
10,AGCCTTAC,-0.217 ± 0.027
11,CGTGCTGA,0.22 ± 0.0033
12,AACCTAGG,-0.0376 ± 0.091
13,GCCGGGAA,-0.00315 ± 0.045
14,AAACGACG,0.0405 ± 0.044
15,CAGCATCC,-0.136 ± 0.017
16,GATCCTGA,-0.149 ± 0.0074
17,CCGAGGGC,-0.1066 ± 0.00054
18,ACTCCTGC,-0.266 ± 0.017
19,AAGCAGAG,-0.224 ± 0.015
20,ATCTCGGG,0.037 ± 0.043
21,GCAGACCA,-0.213 ± 0.021
22,ACGCGACA,0.283 ± 0.0092

row,Sequence,PBM E-score of 8-mer
1,GCACTTTA,0.306 ± 0.024
2,CATCTTAG,0.0503 ± 0.11
3,GTTTACCA,0.0208 ± 0.048
4,ATCGATAG,0.0741 ± 0.14
5,ATCACCTC,0.387 ± 0.0097
6,GTAGGGGA,-0.221 ± 0.017
7,ATGCCAAT,0.00685 ± 0.011
8,AGCGTCCC,-0.148 ± 0.0096
9,GAATAAAC,-0.177 ± 0.13
10,ACGCGACT,0.122 ± 0.059
11,GCGTGGTA,0.0125 ± 0.0024
12,ACGAGGAA,-0.124 ± 0.011
13,CCGTCGCA,0.122 ± 0.0018
14,CAATACGG,-0.202 ± 0.091
15,CATTCGGG,-0.1774 ± 0.001
16,AGCAAGTG,0.272 ± 0.03
17,ACTAGCTC,-0.225 ± 0.0097
18,CCGTCTCA,0.0549 ± 0.013
19,GCGCGTCA,0.265 ± 0.028
20,AATTTATA,-0.172 ± 0.016
21,CATGAAGG,-0.0262 ± 0.011
22,ATTGGAGG,0.00082 ± 0.053
